Key:
human α2CRs [1] = target: T1, human α2CRs (Homo sapiens, UniProt P18825); details: for Activation of Gαi/o subtypes coupled to α2CRs: 10 μM screen, 5 min exposure; for Activation of α2CR-Gαi1 after 30 min exposure: 30 min before adding coelenterazine, up to 10 μM, Figure S3
T1 sequence (P18825 1-462): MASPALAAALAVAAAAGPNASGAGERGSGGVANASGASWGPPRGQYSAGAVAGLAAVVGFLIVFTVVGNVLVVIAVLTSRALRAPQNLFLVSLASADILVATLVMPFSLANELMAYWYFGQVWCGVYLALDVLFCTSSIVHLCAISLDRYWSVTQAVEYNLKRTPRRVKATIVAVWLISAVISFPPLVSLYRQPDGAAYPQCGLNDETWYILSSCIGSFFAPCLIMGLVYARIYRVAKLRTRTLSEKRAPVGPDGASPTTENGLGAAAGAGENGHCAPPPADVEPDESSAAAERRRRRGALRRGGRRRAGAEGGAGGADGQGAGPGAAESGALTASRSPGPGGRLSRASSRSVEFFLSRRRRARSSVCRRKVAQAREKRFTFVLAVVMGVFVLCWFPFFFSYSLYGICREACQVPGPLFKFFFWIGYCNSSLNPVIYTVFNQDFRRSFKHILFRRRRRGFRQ

human α2CRs [2] = target: T1, human α2CRs; assay: cell-based; details: HEK293, read-out: Emax relative to epinephrine at α2C-Gαi2

Compound | Activation of Gαi/o subtypes coupled to α2CRs (human α2CRs [1]) | Activation of α2CR-Gαi1 after 30 min exposure (human α2CRs [1]) | Emax (human α2CRs [2])
Clc1cccc(Cl)c1N=C1NCCN1 [clonidine] | significantly activated each of the Gαi/o subtypes | agonist effects | 23 to 30%
mitragynine | no significant activity | did not activate α2CR–Gαi1 | 

Reference: publication PMC12679550 (ACS Chemical Neuroscience, 2025)
